# The list shows a part of the results.
# B1: Surfactant Protein D (Human); Neck + Carbohydrate Recognition Domain (NCRD) (Homo sapiens) (protein)
# chain: MLLFLLSALVLLTQPLGYLEAEMKTYSHRTMPSACTLVMCSSVESGLPGRDRDGREGPRGEKGDPGLPGAAGQAGMPGQAGPVGPKGDNGSVGEPGPKGDTGPSGPPGPPGVPGPAGREGALGKQGNIGPQGKPGPKGEAGPKGEVGAPGMQGSAGARGLAGPKGERGVPGERGVPGNTGAAGSAGAMGPQGSPGARGPPGLKGDKGIPGDKGAKGESGLPDVASLRQQVEALQGQVQHLQAAFSQYKKVELFPNGQSVGEKIFKTAQFVKPFTEAQLLCTQAGGQLASPRSAAENAALQQLVVAKNEAAFLSMTDSKTEGKFTYPTGESLVYSNWAPGEPNDNGGSEDCVEIFTNGKWNDRACGEKRLVVCEF
# What was measured:
# Assay in all cases: glycan array binding signal (z-score within array); higher = stronger binding
# Details in all cases: glycan notation: IUPAC condensed, linker removed; mutation: D325N
# [1] = target: GlcNAc(b1-6)GalNAc
# Summary of the method: (§1)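 Glycan array data came from 3228 arrays in the Consortium for Functional Glycomics database, and only arrays with an available protein sequence were kept. Glycan names were put into IUPAC-condensed notation, and columns mapping to the same glycan were averaged. The binding signal is a within-array Z-score, averaged across arrays of one protein sequence run at different concentrations or buffers and across linkers. A negative Z-score can be read as non-binding.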
# [2] = target: GlcNAc3Prop(b1-4)GlcNAc
# Summary of the method: as §1
# [3] = target: Kdn(a2-3)Gal(b1-3)GlcNAc
# Summary of the method: as §1
# [4] = target: Kdn(a2-3)Gal(b1-4)GlcNAc
# Summary of the method: as §1
# [5] = target: Man(a1-2)Man(a1-2)Man(a1-3)Man
# Summary of the method: as §1
# [6] = target: Man(a1-2)Man(a1-2)Man(a1-6)[Man(a1-3)]Man
# Summary of the method: as §1
# [7] = target: Man(a1-2)Man(a1-3)Man
# Summary of the method: as §1
# [8] = target: Man(a1-2)Man(a1-3)[Man(a1-2)Man(a1-6)]Man
# Summary of the method: as §1
# [9] = target: Man(a1-2)Man(a1-3)[Man(a1-2)Man(a1-6)]Man(a1-6)[Man(a1-2)Man(a1-2)Man(a1-3)]Man
# Summary of the method: as §1
# [10] = target: Man(a1-2)Man(a1-3)[Man(a1-2)Man(a1-6)]Man(a1-6)[Man(a1-2)Man(a1-2)Man(a1-3)]Man(b1-4)GlcNAc(b1-4)GlcNAc
# Summary of the method: as §1
# [11] = target: Man(a1-2)Man(a1-3)[Man(a1-6)]Man(a1-6)[Man(a1-2)Man(a1-3)]Man(b1-4)GlcNAc(b1-4)GlcNAc
# Summary of the method: as §1
# [12] = target: Man(a1-2)Man(a1-6)[Man(a1-3)]Man(a1-6)[Man(a1-2)Man(a1-2)Man(a1-3)]Man
# Summary of the method: as §1
# [13] = target: Man(a1-2)Man(a1-6)[Man(a1-3)]Man(a1-6)[Man(a1-2)Man(a1-2)Man(a1-3)]Man(b1-4)GlcNAc(b1-4)GlcNAc
# Summary of the method: as §1
# [14] = target: Man(a1-3)[Man(a1-6)]Man
# Summary of the method: as §1
# [15] = target: Man(a1-3)[Man(a1-6)]Man(a1-6)[Man(a1-2)Man(a1-3)]Man(b1-4)GlcNAc(b1-4)GlcNAc
# Summary of the method: as §1
# [16] = target: Man(a1-3)[Man(a1-6)]Man(a1-6)[Man(a1-3)]Man
# Summary of the method: as §1
# [17] = target: Man(a1-3)[Man(a1-6)]Man(a1-6)[Man(a1-3)]Man(b1-4)GlcNAc(b1-4)GlcNAc
# Summary of the method: as §1
# [18] = target: Man(a1-3)[Man(a1-6)]Man(b1-4)GlcNAc(b1-4)GlcNAc
# Summary of the method: as §1
# [19] = target: Man(a1-6)Man
# Summary of the method: as §1
# [20] = target: Man(b1-4)GlcNAc
# Summary of the method: as §1
# [21] = target: Neu5Ac(a2-3)Gal
# Summary of the method: as §1
# [22] = target: Neu5Ac(a2-3)Gal(b1-3)GalNAc
# Summary of the method: as §1
# [23] = target: Neu5Ac(a2-3)Gal(b1-3)GalNAc(b1-3)Gal(a1-4)Gal(b1-4)Glc
# Summary of the method: as §1
# [24] = target: Neu5Ac(a2-3)Gal(b1-3)GalNAc(b1-3)Gal(b1-4)GlcNAc
# Summary of the method: as §1
# [25] = target: Neu5Ac(a2-3)Gal(b1-3)GalNAc(b1-4)[Neu5Ac(a2-3)]Gal(b1-4)Glc
# Summary of the method: as §1
# [26] = target: Neu5Ac(a2-3)Gal(b1-3)GalNAc6S
# Summary of the method: as §1
# [27] = target: Neu5Ac(a2-3)Gal(b1-3)GlcNAc
# Summary of the method: as §1
# [28] = target: Neu5Ac(a2-3)Gal(b1-3)GlcNAc(b1-3)Gal(b1-3)GlcNAc
# Summary of the method: as §1
# [29] = target: Neu5Ac(a2-3)Gal(b1-3)GlcNAc6S
# Summary of the method: as §1
# [30] = target: Neu5Ac(a2-3)Gal(b1-3)[Fuc(a1-4)]GlcNAc
# Summary of the method: as §1
# [31] = target: Neu5Ac(a2-3)Gal(b1-3)[Fuc(a1-4)]GlcNAc(b1-3)Gal(b1-4)[Fuc(a1-3)]GlcNAc
# Summary of the method: as §1
# [32] = target: Neu5Ac(a2-3)Gal(b1-3)[Neu5Ac(a2-3)Gal(b1-4)]GlcNAc
# Summary of the method: as §1
# [33] = target: Neu5Ac(a2-3)Gal(b1-3)[Neu5Ac(a2-6)]GalNAc
# Summary of the method: as §1
# [34] = target: Neu5Ac(a2-3)Gal(b1-4)Glc
# Summary of the method: as §1
# [35] = target: Neu5Ac(a2-3)Gal(b1-4)GlcNAc
# Summary of the method: as §1
# [36] = target: Neu5Ac(a2-3)Gal(b1-4)GlcNAc(b1-2)Man(a1-3)[GlcNAc(b1-2)Man(b1-4)GlcNAc(b1-2)Man(a1-6)]Man(b1-4)GlcNAc(b1-4)GlcNAc
# Summary of the method: as §1
# [37] = target: Neu5Ac(a2-3)Gal(b1-4)GlcNAc(b1-2)Man(a1-3)[Neu5Ac(a2-6)Gal(b1-4)GlcNAc(b1-2)Man(a1-6)]Man(b1-4)GlcNAc(b1-4)GlcNAc
# Summary of the method: as §1
# [38] = target: Neu5Ac(a2-3)Gal(b1-4)GlcNAc(b1-3)Gal(b1-3)GlcNAc
# Summary of the method: as §1
# [39] = target: Neu5Ac(a2-3)Gal(b1-4)GlcNAc(b1-3)Gal(b1-4)GlcNAc
# Summary of the method: as §1
# [40] = target: Neu5Ac(a2-3)Gal(b1-4)GlcNAc(b1-3)Gal(b1-4)GlcNAc(b1-3)Gal(b1-4)GlcNAc
# Summary of the method: as §1
# [41] = target: Neu5Ac(a2-3)Gal(b1-4)GlcNAc(b1-3)Gal(b1-4)[Fuc(a1-3)]GlcNAc
# Summary of the method: as §1
# [42] = target: Neu5Ac(a2-3)Gal(b1-4)GlcNAc(b1-6)[Gal(b1-3)]GalNAc
# Summary of the method: as §1
# [43] = target: Neu5Ac(a2-3)Gal(b1-4)GlcNAc(b1-6)[Neu5Ac(a2-3)Gal(b1-3)]GalNAc
# Summary of the method: as §1
# [44] = target: Neu5Ac(a2-3)Gal(b1-4)GlcNAc6S
# Summary of the method: as §1
binder,measurement,setting,value
B1,glycan array binding signal (z-score),[1],-0.156
same,glycan array binding signal (z-score),[2],-0.093
same,glycan array binding signal (z-score),[3],-0.148
same,glycan array binding signal (z-score),[4],-0.172
same,glycan array binding signal (z-score),[5],2.18
same,glycan array binding signal (z-score),[6],0.416
same,glycan array binding signal (z-score),[7],-0.133
same,glycan array binding signal (z-score),[8],1.77
same,glycan array binding signal (z-score),[9],9.38
same,glycan array binding signal (z-score),[10],-0.103
same,glycan array binding signal (z-score),[11],0.891
same,glycan array binding signal (z-score),[12],8.54
same,glycan array binding signal (z-score),[13],0.207
same,glycan array binding signal (z-score),[14],-0.142
same,glycan array binding signal (z-score),[15],0.79
same,glycan array binding signal (z-score),[16],11.2
same,glycan array binding signal (z-score),[17],0.338
same,glycan array binding signal (z-score),[18],0.376
same,glycan array binding signal (z-score),[19],-0.118
same,glycan array binding signal (z-score),[20],-0.119
same,glycan array binding signal (z-score),[21],-0.155
same,glycan array binding signal (z-score),[22],-0.136
same,glycan array binding signal (z-score),[23],-0.132
same,glycan array binding signal (z-score),[24],-0.122
same,glycan array binding signal (z-score),[25],-0.132
same,glycan array binding signal (z-score),[26],-0.129
same,glycan array binding signal (z-score),[27],-0.127
same,glycan array binding signal (z-score),[28],-0.113
same,glycan array binding signal (z-score),[29],-0.148
same,glycan array binding signal (z-score),[30],-0.133
same,glycan array binding signal (z-score),[31],-0.111
same,glycan array binding signal (z-score),[32],-0.151
same,glycan array binding signal (z-score),[33],-0.14
same,glycan array binding signal (z-score),[34],-0.151
same,glycan array binding signal (z-score),[35],-0.136
same,glycan array binding signal (z-score),[36],-0.063
same,glycan array binding signal (z-score),[37],-0.137
same,glycan array binding signal (z-score),[38],-0.126
same,glycan array binding signal (z-score),[39],-0.151
same,glycan array binding signal (z-score),[40],-0.151
same,glycan array binding signal (z-score),[41],-0.121
same,glycan array binding signal (z-score),[42],-0.145
same,glycan array binding signal (z-score),[43],-0.14
same,glycan array binding signal (z-score),[44],-0.132
